# Measurements: publication PMC9574860, “Chemical Toolkit for PARK7: Potent, Selective, and High-Throughput” (Journal of Medicinal Chemistry, 2022)
# In all, about 7,900 compounds went through this assay and about 400 (5.1%) showed an effect of 50% or more. The list shows a part of the results.
# Target: Parkinson's disease protein 7 (PARK7/DJ1) (human, UniProt Q99497)
# Test: primary screen, percent inhibition; read as competition with a fluorescent probe by fluorescence polarization; higher = more effect of the substance
# Conditions: 100 µM
# Procedure, shortened: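 Fluorescence-polarization probe displacement (JYQ-107, 20 nM final, 2 h) after 2 h preincubation of PARK7 (0.2 μM final) with each fragment at 100 μM final. Read-out ex/em 480/520 nm; remaining activity derived from FP signal loss relative to reference controls.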
# Parkinson's disease protein 7 (PARK7/DJ1), sequence (Q99497 whole entry, looked up): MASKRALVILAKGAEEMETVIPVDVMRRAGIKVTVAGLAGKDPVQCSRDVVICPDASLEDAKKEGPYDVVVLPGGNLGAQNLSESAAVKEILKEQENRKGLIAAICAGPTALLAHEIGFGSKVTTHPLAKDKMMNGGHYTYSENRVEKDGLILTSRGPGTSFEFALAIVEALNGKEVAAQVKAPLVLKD
row,Structure (SMILES),Inhibition % [%]
1,Nc1cc2ccccc2nc1S,52
2,C=CC(=O)N[C@H]1C[C@H](c2ccc(OC)c(F)c2)C1,15
3,Cc1cc(C=C(C#N)C(=O)N2CCC2)c(C)n1CC(C)C,-2.1
4,Cc1nn(C(=O)N2CCOCC2)c(C)c1Cl,4.59
5,N#CC(=Cc1ccccc1Cl)C(N)=O,-0.373
6,C=CC(=O)N1CCC(N(C)S(C)(=O)=O)CC1,5.74
7,CC(C)C1NC(=O)C12CC1OC1C2 (stereo not drawn),5.37
8,C=CC(=O)N1CCC(Oc2cccnc2N2CCCC2)C1 (stereo not drawn),13.2
9,O=C(Oc1cccc2ccccc12)N1CCOCC1,0.489
10,O=C(Nc1ccccn1)c1cccnc1S,5.78
11,Cc1cn2c(n1)CCC(Nc1ccc(C#N)nc1)C2 (stereo not drawn),4.81
12,Sc1ncnc2ccccc12,6.43
13,C=CC(=O)N1CCc2c1cccc2C(F)(F)F,5.03
14,CC(=O)N1CCC(n2c(S)nc3ccccc3c2=O)C1 (stereo not drawn),5.52
15,Cl.O=C(O)C1CCN(C(=O)C=Cc2ccc(Cl)s2)C1 (stereo not drawn),11.7
16,C=CC(=O)NC1CCN(c2ccc(Cl)c(F)c2)C1=O (stereo not drawn),0.956
17,NS(=O)(=O)c1cccc(NC(=O)CCl)c1,14.7
18,CC(Cc1ccc(O)cc1)NC(=O)c1cccnc1S (stereo not drawn),3.88
19,Cc1cc([N+](=O)[O-])ccc1NC(=O)CCl,18.4
20,Cl.SCCNC1CCCCC1,4.63
21,Cc1cc(C(=O)CCl)c(C)n1-c1ccccn1,71.3
22,COc1cc(C)c(C)cc1S(=O)(=O)n1ccnc1C,1.84
23,Cc1ccccc1CN1CCC(C2OCCO2)CC1,9.85
24,CCc1oc2ccccc2c1C=C(C#N)C(=O)NC1CC1,-0.758
25,Cc1cc(Cl)nc(C#N)c1,20.8

row,Structure (SMILES),Inhibition % [%]
1,CC(C)CN(C(=O)CCl)C1CC1,6.01
2,CN(C)CCN(C)c1ccc(B2OC(C)(C)C(C)(C)O2)cc1,3.58
3,C=CC(=O)N1CCCCc2c(OC)cccc21,6.65
4,CN1CCN(c2oc(-c3ccccc3)nc2C#N)CC1,-1.53
5,O=S(=O)(F)c1ccc(Nc2cnn(CC(F)(F)F)c2)nc1,21.1
6,Cc1ccc(C(C)C)cc1S(=O)(=O)n1cccn1,4.67
7,CCC1(CNc2ccc(S(=O)(=O)F)cn2)CC1,0.0936
8,O=C1OCCC1N1CCC(C(=O)N2CCCCC2)CC1 (stereo not drawn),3.78
9,CC1(C)OB(c2cnn(-c3ccc(Cl)cc3Cl)c2)OC1(C)C,3.3
10,O=C1OCCC1Sc1nccn1-c1ccccc1 (stereo not drawn),0.695
11,C=CC(=O)N1CCC(Cc2ccncc2)C1 (stereo not drawn),6.08
12,N#CC=CN1CCc2ccccc2C1,26.8
13,O=C(CCl)NC(=O)NCc1ccccc1,6.39
14,Cl.NCC1OB(O)c2ccccc21 (stereo not drawn),3.67
15,CC(C#N)NC(=O)CCn1c(S)nc2ccccc2c1=O (stereo not drawn),10.2
16,C=CC(=O)N1CCC2(C1)Oc1ccccc1O2,6.75
17,CCOC(=O)[C@@H]1CN(C(=O)OC(C)(C)C)C[C@H]1B1OC(C)(C)C(C)(C)O1 (racemic),3.39
18,CCOC(=O)c1c(NC(=O)CCl)sc2c1CCC2,5.34
19,CC1(C)OB(c2cc3ccoc3cc2F)OC1(C)C,9.27
20,Cn1cnc2cc(B3OC(C)(C)C(C)(C)O3)ccc21,8.19
21,C=CC(=O)N(C)C1CCN(CC)CC1C (stereo not drawn),28.7
22,C=CC(=O)NCC1CCOC(C)(C)C1 (stereo not drawn),11.3
23,Cc1nn(-c2ccccc2)c(C)c1NC(=O)CCCl,4.56
24,C=CC(=O)N[C@@H]1CC=CC[C@H]1C (racemic),12.5
25,C=CC(=O)Nc1ccccc1N1CC2CCC1C2 (stereo not drawn),14.2

row,Structure (SMILES),Inhibition % [%]
1,CC(c1ccccc1)C1CO1 (stereo not drawn),-0.54
2,N#Cc1ncn(Cc2ccc(C(=O)N3CCCC3)cc2)n1,4.22
3,Cc1ccc(Cl)cc1NC(=O)CN1CCSC1=O,-2.92
4,C=CC(=O)N1C2CCCC1COC2,9.14
5,O=C1OCCC1Sc1ncccc1Cl (stereo not drawn),7.32
6,O=C(CCl)Nc1ccc(Oc2ccccc2)cc1,84.2
7,O=C(CCl)N1CCN(C(=O)C2CC2)CC1,56.1
8,C=CC(=O)N1CCC1(C)C1CCCCC1 (stereo not drawn),6.7
9,CC(N)c1ccc(B2OC(C)(C)C(C)(C)O2)cc1.Cl (stereo not drawn),4.31
10,CNC(=O)C(C#N)=Cc1cc2cc(C)c(C)cc2o1,11.4
11,N#CC1(CC2CO2)CCOCC1 (stereo not drawn),11.8
12,O=c1onc(-c2ccccn2)n1Cc1ccccc1,5.11
13,C=CC(=O)NC1CCN(C(=O)CC)CC1C (stereo not drawn),3.82
14,C=CC(=O)NCCc1noc(-c2ccccn2)n1,11
15,N#CC(=Cc1ccccc1OCC(F)(F)F)C(=O)O,20.2
16,COc1cccc(CS)c1,15.4
17,Cc1cc(B2OC(C)(C)C(C)(C)O2)n(C2CCCCO2)n1 (stereo not drawn),4.86
18,C=CC(=O)Nc1nc2ncccn2n1,6.78
19,C=CC(=O)N1CCC(n2cc(Br)cn2)CC1,10.1
20,C=CC(=O)N1CC(=O)NCC1(C)C,11.6
21,C=CC(=O)NC1CCCC1C(C)(C)C (stereo not drawn),6.75
22,Cc1nn(C)c(Cl)c1C=CC(=O)N1CC(C)NC(C)C1 (stereo not drawn),9.72
23,N#Cc1cncc(NC2C3CC4CC2CC(F)(C4)C3)n1 (stereo not drawn),8
24,C=CC(=O)NC(CC)C(=O)N1CCOCC1 (stereo not drawn),17.1
25,N#Cc1ncn(CCOc2cccc(Cl)c2)n1,2.66

row,Structure (SMILES),Inhibition % [%]
1,OB(O)c1cc(F)ccc1OCCc1ccccc1,3.95
2,C=CC(=O)NCc1ccc2c(c1)CCO2,9.41
3,O=C(CCl)NC1CCCCNC1=O (stereo not drawn),13.7
4,C=CC(=O)NC1(COC)CCOC1 (stereo not drawn),4.59
5,CC1CCCN(C(=O)C=Cc2cnc3ccccc3n2)C1 (stereo not drawn),9.42
6,O=C1COc2ccccc2N1CCCl,4.53
7,Cc1ccc(Cl)cc1B(O)O,8.59
8,C=CC(=O)NC[C@@H]1CC(=O)N(C)[C@H]1c1c(C)nn(C)c1C,8.72
9,O=C(O)C=CC(=O)N1CCCc2ccccc21,14.1
10,CC1CN(C)CCN1C(=O)C=Cc1nccs1 (stereo not drawn),15.8
11,C=CC(=O)NCc1cnc(C)s1,6.09
12,O=C(CCl)N(Cc1ccco1)CC(F)(F)F,11.9
13,Cc1csc(NC(=O)CCN2C(=O)CCC2=O)n1,5.08
14,O=C(CCl)NC1CCOc2ccccc21 (stereo not drawn),15.1
15,O=C1OCCC1N1CCc2sccc2C1 (stereo not drawn),4.89
16,CCc1oc2ccccc2c1C=C(C#N)C(N)=O,3.72
17,O=c1[nH]c(-c2ccc(F)c(Cl)c2)no1,12.5
18,CCc1ccc(OC)c(S(=O)(=O)n2ccnc2)c1,1.17
19,CC(C)(C)OC(=O)N1CCN(Cc2ccc(B3OC(C)(C)C(C)(C)O3)cc2)CC1,2.85
20,CNC(=O)c1cncc(C=CC(=O)N2CCNCC2C)c1.Cl (stereo not drawn),5.63
21,C=CC(=O)NC[C@]12OCCC[C@H]1C2(F)F (racemic),10.3
22,Cc1cc(C#N)nc(=O)[nH]1,-14.8
23,C=CC(=O)N1CCCC(C2CCCCO2)C1 (stereo not drawn),4.84
24,O=c1[nH]c(-c2ccccn2)no1,28
25,CSc1nccnc1C#N,1.38

row,Structure (SMILES),Inhibition % [%]
1,COc1ccccc1C(C)N(C)C(=O)CCl (stereo not drawn),31.5
2,Cl.Cn1nccc1CCCl,6.9
3,N#Cc1nnc2ccccc2c1N,1.29
4,O=C(Oc1ccnc2cc(Cl)ccc12)N1CCCC1,5.44
5,Cc1noc(C)c1S(=O)(=O)Oc1cccc(F)c1C#N,14.8
6,CC1(C)OB(c2cc3nccnc3cc2Cl)OC1(C)C,5.05
7,CS(=O)(=O)N(c1ccc(F)cc1)C1C=CS(=O)(=O)C1 (stereo not drawn),9.84
8,O=C(C=Cc1cnn(-c2ccccc2)c1)N1CCCC1,1.16
9,CNc1cnc(C#N)cn1,3.91
10,CC(OS(C)(=O)=O)C(C)c1ccc2ccccc2n1.Cl (stereo not drawn),24.3
11,O=C1c2ccccc2S(=O)(=O)N1CCS(=O)(=O)F,32.5
12,O=S(=O)(F)c1ccc(Cn2cnc(Br)n2)cc1,12.6
13,FC(F)(F)C1(c2ccccc2)CO1 (stereo not drawn),8.56
14,N#Cc1cn(CC(=O)N2CCCC3CCCCC32)nn1 (stereo not drawn),6.52
15,C=CC(=O)N1[C@@H]2CC[C@H]1CN(C)C(=O)C2 (racemic),16.7
16,O=C(CCl)Nc1ccc(Cl)c(F)c1,36.8
17,C#CC(=O)c1ccc(Cl)cc1,2.9
18,O=S(=O)(c1cccc(F)c1)N1CCCCC1C1OCCO1 (stereo not drawn),3.08
19,CC1(C)CC(C)(NCc2cccc(F)c2)C(=O)O1 (stereo not drawn),14.4
20,COc1cc(S(=O)(=O)n2cccn2)ccc1Cl,8
21,C=CC(=O)NCc1nc(-c2ccc(Cl)cc2)c[nH]1,10.1
22,CS(=O)(=O)OCC1CC2CCC1O2 (stereo not drawn),10.8
23,CCn1cc(B2OC(C)(C)C(C)(C)O2)c(C2CC2)n1,7.62
